Data published in paper PMC4336329 (PLoS ONE, 2015).
Among all 310,000 compounds or so, about 2,200 (0.71%) showed an effect of 50% or more. Effects have a minus sign here. This is one part of the list.

Each compound was assayed against human ether-à-go-go-related gene (hERG) potassium channel (human, UniProt Q12809) (assay: primary screen, population patch clamp on CHO cells stably expressing hERG).
human ether-à-go-go-related gene (hERG) potassium channel, sequence (Q12809 whole entry, looked up): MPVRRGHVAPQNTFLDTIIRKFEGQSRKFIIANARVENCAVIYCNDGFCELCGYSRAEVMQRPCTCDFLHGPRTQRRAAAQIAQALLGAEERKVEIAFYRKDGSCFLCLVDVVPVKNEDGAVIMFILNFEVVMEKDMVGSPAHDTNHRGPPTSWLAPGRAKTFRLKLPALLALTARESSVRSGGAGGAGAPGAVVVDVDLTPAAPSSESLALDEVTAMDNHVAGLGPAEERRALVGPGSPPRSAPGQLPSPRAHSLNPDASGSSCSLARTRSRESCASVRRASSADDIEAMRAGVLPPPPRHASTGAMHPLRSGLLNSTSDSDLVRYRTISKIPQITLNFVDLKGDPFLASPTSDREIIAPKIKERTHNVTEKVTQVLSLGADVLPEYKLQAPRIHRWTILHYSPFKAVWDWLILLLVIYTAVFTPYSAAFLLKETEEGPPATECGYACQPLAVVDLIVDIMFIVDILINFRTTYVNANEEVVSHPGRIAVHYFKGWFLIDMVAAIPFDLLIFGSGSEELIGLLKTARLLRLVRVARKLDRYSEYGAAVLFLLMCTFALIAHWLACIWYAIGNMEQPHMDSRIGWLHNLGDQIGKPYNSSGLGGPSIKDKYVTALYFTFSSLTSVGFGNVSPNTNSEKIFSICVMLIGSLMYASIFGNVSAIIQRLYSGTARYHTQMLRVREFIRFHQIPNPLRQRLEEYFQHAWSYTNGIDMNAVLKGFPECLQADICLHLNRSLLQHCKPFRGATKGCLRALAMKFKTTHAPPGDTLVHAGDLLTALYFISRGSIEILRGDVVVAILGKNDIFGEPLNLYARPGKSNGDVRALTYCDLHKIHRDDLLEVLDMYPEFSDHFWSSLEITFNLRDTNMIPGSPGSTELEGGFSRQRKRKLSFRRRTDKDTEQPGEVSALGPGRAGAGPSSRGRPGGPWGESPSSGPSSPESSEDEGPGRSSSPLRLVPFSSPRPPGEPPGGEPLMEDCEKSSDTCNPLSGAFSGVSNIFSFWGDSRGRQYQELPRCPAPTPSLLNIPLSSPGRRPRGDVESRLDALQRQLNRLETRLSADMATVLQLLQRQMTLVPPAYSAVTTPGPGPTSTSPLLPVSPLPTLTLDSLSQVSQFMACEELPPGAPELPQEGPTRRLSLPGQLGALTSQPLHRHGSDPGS

Structure (SMILES)	hERG current change (%, negative = inhibition) at 1uM
O=C(COC(=O)Cc1ccc(Cl)cc1Cl)NCCC1=CCCCC1	13.5%
COc1ccc(C2C(C(=O)N3CCCC3)CC(=O)N2c2ccc(OC)cc2)cc1 (stereo not shown)	9.52%
N/C(=N\OC(=O)Cc1cccs1)c1ccccc1	2.58%
Cc1occc1C(=O)NC(C)C(C)(C)C (stereo not shown)	8.65%
CNC(=O)/C(C#N)=C/c1c(N2CCCCCC2)nc2c(C)cccn2c1=O	-1.77%
O=C(NC1CCCCC1)C(c1cccnc1)N(C(=O)c1csnn1)c1ccccc1 (stereo not shown)	6.97%
O=C(NNS(=O)(=O)c1ccc2ccccc2c1)c1cccnc1	9.55%
O=C(OCCOc1ccc(F)cc1)c1ccc(S(=O)(=O)N2CCCC2)cc1	7.61%
O=C(Nc1cccc(S(=O)(=O)N2CCOCC2)c1)c1cc([N+](=O)[O-])ccc1N1CCOCC1	7.57%
Cc1cc(NC(=O)CSc2ncccc2C(=O)O)no1	9.54%
C/C(=N\OCC(=O)NC(C)C)c1cccs1	4.61%
CCOc1ccccc1NC(=O)CSc1nc2ccccc2nc1N1CCOCC1	-2.06%
COc1ccc(-n2nc3c(c2NC(=O)C24CC5CC(CC(C5)C2)C4)CS(=O)C3)cc1 (stereo not shown)	1.18%
Cc1cc(NC(=O)CCC(=O)N(CC(=O)NCC2CCCO2)c2ccc(F)c(Cl)c2)no1 (stereo not shown)	13.7%
COc1ccc(N(CCC#N)C(=O)/C(C#N)=C/c2cccs2)cc1	5.8%
Cc1cc(=O)oc2cc(OC(C)C(=O)N3CCCc4ccccc43)ccc12 (stereo not shown)	-2.5%
O=C(NCc1nnc(SCc2ccc(F)cc2)n1-c1ccccc1)C12CC3CC(CC(C3)C1)C2	9.54%
Cc1ccc(NC(=O)CN(C)C(=O)/C=C/c2cccs2)cc1	-6.26%
COc1ccc(CN(Cc2nc3ccccc3c(=O)[nH]2)C(=O)C(C)(C)C)cc1	18.8%
CC(N=C1NS(=O)(=O)c2ccccc21)C(=O)N1CCc2ccccc2C1 (stereo not shown)	3.41%

Structure (SMILES)	hERG current change (%, negative = inhibition) at 1uM
Cn1c(=O)c2cc(S(=O)(=O)NC(C(=O)Nc3cccc(F)c3)c3ccccc3)ccc2n(C)c1=O (stereo not shown)	10.3%
CCOc1cc(S(=O)(=O)n2nc(C)cc2C)ccc1Br	21.2%
COC(C#CCCN(C)C)(c1ccccc1)c1ccccc1.Cl	5.13%
Cn1c(=O)[nH]c(=O)c2c1nc(SCCO)n2Cc1ccccc1Cl	12.1%
CCCCCCOC(=O)Sc1nc2ccccc2o1	3.83%
COc1ccc(NS(=O)(=O)c2ccc(NC(C)=O)cc2)nn1	17.6%
O=Cc1ccccc1OCCOc1ccccc1C=O	2.18%
O=C(O)C(=O)O.O=C(c1ccccc1)N1CCN(C2CCCCCC2)CC1	-3.54%
COc1cc(-c2noc(CCC(=O)Nc3cccnc3)n2)cc(OC)c1OC	7.68%
ClCC(Br)CBr (stereo not shown)	7.42%
CCCCCOc1ccccc1C(=O)NCCCC(=O)O	6.2%
Cc1nc2cc3nc(C(F)(F)F)[nH]c3cc2[nH]1	7.77%
Nc1ccc(C(=O)N/N=C\c2cc(N=Nc3cccc4ccccc34)ccc2O)cc1	20%
CSc1cccc(NC(=O)CCCn2c(=O)c3cccn3c3cccnc32)c1	-3.85%
COCCN(C(=O)COC(=O)C1CC1C)c1c(N)n(Cc2ccccc2)c(=O)[nH]c1=O (stereo not shown)	12.6%
COc1ccc2cc(C(=O)Nc3ccc(S(N)(=O)=O)cc3)sc(=O)c2c1OC	17.8%
O=C(c1cccs1)N1CCC(c2ccccc2)C1 (stereo not shown)	11.6%
CC(C)C(=O)NCCSc1c[nH]c2ccccc12	15.4%
Nc1nnc(SCc2cn3cc(Cl)ccc3n2)s1	5.8%
CN1CCN(c2ccc(Cl)cc2NC(=O)/C=C/c2cccc(F)c2)CC1	-35.4%

Structure (SMILES)	hERG current change (%, negative = inhibition) at 1uM
O=C(N/N=C/c1ccccc1Cl)c1n[nH]c2c1CCCC2	18.1%
CC(=O)Nc1cccc(-c2nnc(SCC(=O)N3CCCCC3)n2C)c1	5.5%
Cc1c(N(C(=O)c2cnccn2)C2(C(=O)NC3CCCC3)CCCCC2)c(=O)n(-c2ccccc2)n1C	5.91%
COCCNC(=O)Nc1ccc2nc(-c3cccs3)c(-c3cccs3)nc2c1	10.9%
COc1ccc(Cc2noc(CN(C)CCc3ccccc3)n2)cc1OC	9.98%
C=CCn1c(SCC(=O)c2cc(C)n(CCOC)c2C)nc2sc(C)c(C)c2c1=O	13%
Cn1c(CN2CCN(C(=O)c3ccco3)CC2)nc2cc([N+](=O)[O-])ccc21	-12.2%
COc1ccc(C(=O)Nc2c(O)ccc3ccccc23)cc1	16%
CCC(=O)NC(Nc1ccccn1)(C(=O)OC)C(F)(F)F (stereo not shown)	15.4%
CCCCCOc1ccc(C(=O)NC(C(=O)O)C(C)C)cc1 (stereo not shown)	15.4%
CC(C(=O)N(C)c1ccccc1)N1CCN(C(=O)c2ccccc2)CC1.O=C(O)C(=O)O (stereo not shown)	15.4%
O=C(NCCCN1CCOCC1)c1nn2c(C(F)(F)F)cc(-c3ccco3)nc2c1Cl	9.8%
Cc1ccc(S(=O)(=O)C(C#N)c2nc3ccccc3nc2OC(C)C)cc1 (stereo not shown)	3.16%
C=CCNC(=O)/C(C#N)=C/c1cn(-c2ccccc2)nc1-c1cccs1	-16%
NS(=O)(=O)c1ccc(CCNC(=O)c2ccc3c(c2)OCO3)cc1	12.5%
CC(C)CC(NC(=O)OC(C)(C)C)C(=O)O.O (stereo not shown)	10.9%
CCCC1=C(C(=O)OCC)C(c2sccc2C)n2ncnc2N1 (stereo not shown)	12.9%
CCOC(=O)c1c(C)nc2c(c1-c1ccccc1)C(=O)CC(C)(C)C2	11.7%
